Experimental data: the supplement of paper PMC3334620
Over roughly 33,000 sequences, “E-score (-0.5 to 0.5)” has its median near -0.013; the highest 2% begin near 0.3. The list shows a part of the results.

target: T1, Msn1 (UniProt P22148); assay: PBM E-score (8-mer binding enrichment) (E-score (-0.5 to 0.5)); higher = stronger / more preferred TF binding; most listed sequences are background and not binding sites; details: protein concentration: 200 nM; construct: GST-full length
T1 sequence: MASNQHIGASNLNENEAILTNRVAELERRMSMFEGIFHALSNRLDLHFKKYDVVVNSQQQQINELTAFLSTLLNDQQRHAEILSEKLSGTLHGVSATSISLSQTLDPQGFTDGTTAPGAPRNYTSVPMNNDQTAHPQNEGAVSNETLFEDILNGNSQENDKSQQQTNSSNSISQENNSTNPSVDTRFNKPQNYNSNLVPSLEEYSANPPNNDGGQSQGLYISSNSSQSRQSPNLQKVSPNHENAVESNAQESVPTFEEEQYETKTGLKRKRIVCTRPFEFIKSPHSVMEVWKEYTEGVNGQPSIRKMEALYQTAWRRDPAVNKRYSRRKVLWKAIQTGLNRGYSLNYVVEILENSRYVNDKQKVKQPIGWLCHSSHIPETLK
Summary of the method: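 For each ungapped eight-base word taken together with its reverse complement, the Universal PBM Analysis Suite assigned an E-score. Binding data came from GST-tagged yeast transcription factors, applied at about 100-200 nM, on universal all-10-mer Agilent arrays made double-stranded by primer extension. Fluorescent anti-GST marked bound protein, and scans were normalised with masliner.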

| Sequence | PBM E-score |
| --- | --- |
| ATAGAGGG | -0.14 |
| ATACCTAT | -0.0115 |
| CAATCCGC | 0.0784 |
| CGAGAGAC | -0.116 |
| CGTCTCAC | -0.0978 |
| AATGCAAG | -0.0588 |
| CGTAGGTC | -0.171 |
| AACATCAA | 0.0716 |
| GCGAGTGA | -0.0159 |
| ACTAAGAT | 0.176 |
| TGGTAAAA | 0.172 |
| CTATTTAC | 0.105 |
| ATTGGGCG | -0.116 |
| AATCACGC | 0.00204 |
| GAGCTGAA | -0.0201 |
| ATATATTG | -0.172 |
| CTGGTATA | -0.044 |
| TATTGCGA | 0.107 |
| ACCGAGTA | -0.0136 |
| GGCTTATA | -0.23 |
| TCCCGCCA | -0.217 |
| ACCATAAA | 0.173 |
| CCCAATAC | -0.057 |
| GGAGTGTA | -0.268 |
| ATTTACCC | 0.164 |

| Sequence | PBM E-score |
| --- | --- |
| TAGACGAA | 0.0138 |
| AGAGTGCA | -0.218 |
| GAGTGTCA | 0.108 |
| AAGAACCC | -0.134 |
| AGGAACGG | -0.124 |
| CTTAAAGA | 0.0952 |
| CATAACAG | 0.0538 |
| GCCCACCA | -0.303 |
| AACTTGTA | 0.107 |
| CCCAAGCG | -0.0934 |
| CTTTGGTA | -0.1 |
| ATTAACAC | 0.0955 |
| GAGATCTA | -0.183 |
| CATATGAA | 0.141 |
| GTACTCGA | -0.113 |
| TGTTACAA | 0.22 |
| AGCTAATC | 0.0178 |
| TAGCCAGA | -0.108 |
| GTCCACGA | 0.249 |
| AGAGTCTG | -0.128 |
| ACGCTCGC | 0.0326 |
| GGAGCTAC | -0.137 |
| AATTGTAA | -0.0934 |
| ACAGGGAA | 0.0107 |
| AGCCCAGC | -0.24 |

| Sequence | PBM E-score |
| --- | --- |
| CTGTGTTC | 0.11 |
| AACGCATA | 0.0763 |
| TCCGAAGA | 0.131 |
| CAATACCC | 0.0522 |
| ACCGACGG | -0.0248 |
| CGATGGCA | -0.164 |
| CGCAATAG | -0.0645 |
| GTACAGTA | 0.0995 |
| AACAGTGA | 0.0353 |
| CAGAAAGG | -0.0618 |
| TTACGCAA | 0.0247 |
| AGTCACAG | 0.13 |
| CCCCCGCA | -0.337 |
| GCGTCCAA | 0.067 |
| GTGATAAA | -0.0414 |
| CTTCAATA | 0.202 |
| TGGCGAAA | -0.095 |
| TAGCACAA | -0.0496 |
| CGGAGAAC | 0.0215 |
| CAGGGAAG | -0.169 |
| TACGCTCA | 0.0632 |
| GAATTTGA | 0.1 |
| TAAGACTA | 0.177 |
| GAGAATCC | -0.0107 |
| AAAGATCG | 0.0122 |

| Sequence | PBM E-score |
| --- | --- |
| CGTCTCAG | 0.0225 |
| ACCTCTCC | -0.216 |
| CTTAATAC | -0.0761 |
| GAAGGGAA | -0.174 |
| AACTCGAG | 0.0829 |
| CATAGCTC | -0.112 |
| CGAGCGTA | 0.0434 |
| ACAGTGGA | 0.0618 |
| CAGGGTCC | -0.201 |
| CAGATTAC | 0.116 |
| ACGATGTA | 0.00548 |
| CGATGATA | -0.039 |
| AGGCAGGC | -0.145 |
| AGGGTATG | 0.0049 |
| ATGGACAA | 0.485 |
| AACTGTGG | 0.139 |
| CGGAAAAA | 0.249 |
| ATTATCGC | 0.251 |
| CCAATTCC | 0.0443 |
| ATACTCAT | -0.0656 |
| CGCGTCAG | -0.235 |
| GAGAGGAA | -0.0126 |
| AGAAAGGA | -0.0862 |
| ATTTAACA | 0.0327 |
| ACCAGAAC | 0.0664 |

| Sequence | PBM E-score |
| --- | --- |
| AATCAAAT | 0.0333 |
| TGAGATCA | 0.0168 |
| AGCCAACC | -0.0851 |
| AAGACGAC | -0.0563 |
| CTTCTTCC | -0.236 |
| ACCGGGGA | -0.187 |
| ACGTTTGG | 0.1 |
| ACACTGCA | -0.146 |
| CTAAAGCA | 0.106 |
| AAGGCATC | -0.248 |
| GTGTAAAC | -0.119 |
| ATGTATCG | 0.113 |
| ATCAGGTG | -0.0523 |
| CTAGAGTC | -0.244 |
| CGAGTGCG | 0.0204 |
| AGAGACTC | -0.0377 |
| AACGTACT | 0.136 |
| TCCAATAA | 0.182 |
| GGTGTTGA | -0.0373 |
| AAGGCAAT | -0.00686 |
| AAGCCCAG | -0.224 |
| ATAGCCTG | -0.188 |
| GACTGCAA | -0.16 |
| ACACATCC | 0.0829 |
| ACATAGAC | 0.253 |

| Sequence | PBM E-score |
| --- | --- |
| CGCCCCGC | 0.0251 |
| CAACCACA | 0.043 |
| AAAGGATT | -0.134 |
| CTGACAAA | 0.37 |
| ATACTGGA | 0.0328 |
| AGCACCGA | 0.102 |
| AAAAGGCA | 0.117 |
| AAAGTGCT | -0.00618 |
| GCACTCAA | -0.276 |
| ACCCCGGA | -0.0352 |
| TGTACACA | 0.279 |
| CCTGATTC | -0.158 |
| ATTAAGAC | 0.22 |
| ATATCACG | -0.0452 |
| CGCATAAA | 0.0863 |
| CATTAACG | 0.229 |
| AAGAATCA | 0.0806 |
| ACCTGGGC | -0.319 |
| GGTTGAAC | -0.00854 |
| CATTCAGA | 0.00205 |
| ATCCGCTA | -0.0643 |
| ACACATGT | 0.238 |
| GCGTGTCC | 0.431 |
| CAATCCCG | 0.117 |
| GAAGCACA | 0.0136 |

| Sequence | PBM E-score |
| --- | --- |
| ATACCGTG | -0.138 |
| ATTTCTAC | 0.11 |
| ACTACTTG | 0.0825 |
| GCACGTGA | -0.0822 |
| AACTTAAC | 0.211 |
| CCCCGGGG | -0.188 |
| GTATTCAA | 0.0536 |
| ACGGAGCG | 0.0484 |
| AACAGAAT | -0.0275 |
| ATGCAGTA | 0.147 |
| ACTTTAAT | 0.179 |
| ACCGTCCC | -0.114 |
| CTTCTAGA | 0.00137 |
| GAAAGAGA | -0.162 |
| AACTTCCG | 0.0902 |
| ATCCGCTG | -0.02 |
| AAGCTTTG | 0.143 |
| AAGATAGC | -0.0986 |
| TCAGGTCA | -0.111 |
| ATGTGAGC | -0.073 |
| CGTCCCGC | 0.0266 |
| AACGTTCG | -0.0764 |
